Source: PubChem BioAssay AID488969 (Vanderbilt High Throughput Screening Facility, 2010)
In all, about 110,000 compounds were measured (“z-score”: median about -0.1, highest 2% from about 2 on). The list shows a part of the results.

Target: Metabotropic glutamate receptor 8 (Rattus norvegicus) (UniProt P70579)
Experiment: rat mGluR8 modulators via GIRK flux, primary screen, cell-based, thallium flux, HTS (AID 488969)
Conditions: HEK293 rat mGluR8, GIRK (G protein-gated inwardly rectifying potassium channel) thallium flux, FluoZin2; at 10 µM; stronger effect = higher value; submaximal glutamate (EC20) added with thallium

UniProt P70579, sequence (P70579 whole entry, looked up): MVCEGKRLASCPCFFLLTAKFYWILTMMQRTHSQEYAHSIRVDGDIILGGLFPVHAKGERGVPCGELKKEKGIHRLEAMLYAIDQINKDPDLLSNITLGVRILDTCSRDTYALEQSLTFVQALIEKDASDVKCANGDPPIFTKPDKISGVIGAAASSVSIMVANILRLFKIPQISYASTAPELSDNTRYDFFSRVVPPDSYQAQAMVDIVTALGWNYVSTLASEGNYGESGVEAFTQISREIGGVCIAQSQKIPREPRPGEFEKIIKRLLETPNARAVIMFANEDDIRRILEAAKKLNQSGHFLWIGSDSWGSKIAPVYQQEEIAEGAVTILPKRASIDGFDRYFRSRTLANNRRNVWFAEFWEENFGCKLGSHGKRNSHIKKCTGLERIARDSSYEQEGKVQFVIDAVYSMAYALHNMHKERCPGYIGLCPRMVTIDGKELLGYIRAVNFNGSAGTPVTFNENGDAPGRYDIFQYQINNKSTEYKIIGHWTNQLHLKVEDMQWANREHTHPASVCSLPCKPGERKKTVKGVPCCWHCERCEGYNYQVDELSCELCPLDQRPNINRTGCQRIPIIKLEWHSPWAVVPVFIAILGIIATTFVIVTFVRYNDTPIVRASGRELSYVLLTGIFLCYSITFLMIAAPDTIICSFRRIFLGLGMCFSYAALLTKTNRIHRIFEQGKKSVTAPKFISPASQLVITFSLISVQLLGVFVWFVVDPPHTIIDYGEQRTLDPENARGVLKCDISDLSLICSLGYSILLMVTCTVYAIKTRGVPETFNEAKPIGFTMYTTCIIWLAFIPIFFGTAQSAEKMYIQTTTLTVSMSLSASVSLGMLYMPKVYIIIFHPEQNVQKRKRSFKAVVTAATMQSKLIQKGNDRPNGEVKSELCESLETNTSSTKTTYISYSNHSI

SMILES | z-score
CC(C)OC(=O)CSc1nnnn1-c1ccc2c(c1)OCCO2 | 0.195
Cc1ccc(C)c(NC(=O)c2ccccn2)c1 | 0.832
Cc1ccc(CSCC(Nc2ccc(C(=O)O)cc2[N+](=O)[O-])C(=O)O)cc1 (configuration not stated) | -0.165
Cn1c(C(=O)NCCCN2CCN(c3ccccc3F)CC2)cc2c(=O)n(C)c3ccccc3c21 | 2.46
COC(=O)c1ccccc1OC(=O)c1ccc(Br)o1 | -0.504
CCOc1cccc(C(=O)Nc2ccccc2OC(F)F)c1 | -0.614
COc1ccc(C2(CNC(=O)Cc3ccc(OC)c(OC)c3)CCOCC2)cc1 | 0.253
COc1ccccc1-c1cc(C(F)(F)F)nc(N2CCN(c3ccccc3)CC2)n1 | 1.47
CCOc1ccc(N2CC(C(=O)Nc3ccccc3OC)CC2=O)cc1 (configuration not stated) | 1.1
COc1ccc(-n2c(=O)cc(N3CCCCCC3)[nH]c2=O)cc1 | -0.398
O=C(CCc1ccccc1)Nc1c(F)cccc1F | -0.0866
COC(=O)c1ccsc1NC(=O)C1=COCCO1 | -0.298
CCN(CC)CC(=O)N1c2ccccc2Sc2ccc(Cl)cc21 | 0.474
Cc1ccc(CNC(=O)c2cc3c(=O)n(C)c4ccccc4c3n2C)cc1 | 1.16
O=C(/C=C/c1ccccc1)NC(=S)NNC(=O)c1ccco1 | 0.343
CCCCCCNS(=O)(=O)c1ccc(OC)c(OC)c1 | 0.36

SMILES | z-score
COC(=O)c1cc2c(s1)CS(=O)C2 (configuration not stated) | -0.11
Cc1cc(C(=O)NP(=O)(N2CCOCC2)N2CCOCC2)c(C)n1-c1ccc(Br)cc1 | 0.0525
N#CCCN1CCN(CCC#N)CC1 | -0.166
COc1ccc(C(=O)N2CCN(c3nnnn3-c3ccccc3)CC2)cc1OC | 0.191
CN(C)S(=O)(=O)N1CCN(c2ccc(Cl)cc2)CC1 | 0.221
Cc1oc(-c2ccccc2)cc1C(=O)Nc1ccc2ccccc2c1 | -0.569
CSc1ccccc1-c1nnc(-c2ccc(Cl)c(Cl)c2)o1 | -0.461
CCCOC1OC(=O)c2c1ccc(OC)c2OC (configuration not stated) | -0.0106
COc1ccc(C)cc1NC(=O)C1C2C=CC(C2)C1C(=O)O (configuration not stated) | 0.33
O=S(=O)(c1ccc(Cl)cc1)N1CCN(Cc2c[nH]c3ccccc23)CC1 | -0.199
COc1cc(OC)cc(C(=O)NCc2n[nH]c(=S)n2-c2ccccc2OC)c1 | -0.981
COc1ccc(S(=O)(=O)N(C)c2ccc(C(=O)N3CCOCC3)cc2)cc1OC | -0.116
O=C(CN1CCC(O)(c2ccc3c(c2)OCO3)CC1)OC1CCCCC1 | -0.00376
O=C(c1ccc(F)cc1)N1CCN(c2ccc([N+](=O)[O-])c(N3CCOCC3)c2)CC1 | -1.6
CC(=O)Nc1cc(C(=O)N2CCOCC2)ccc1S(=O)(=O)c1ccc(C)cc1 | 0.227
Fc1ccc2c(c1)[C@H]1OCC[C@H]1[C@@H](c1ccco1)N2 | 0.236
